Among the data in PMC9911399, “Two distinct binding modes provide the RNA-binding protein RbFox with extraordinary sequence specificity” are binding signal values, retold here.

Numbering of substitutions follows the chain as printed; changes in the protein carry UniProt numbers. This is one part of the list.

The chains are these.
T1: RBFOX1 RRM RbFoxmut (Fox-RRM*) (Homo sapiens, UniProt Q9NWB1 109-208, R118D;E147R;N151S;E152T)
T1 sequence: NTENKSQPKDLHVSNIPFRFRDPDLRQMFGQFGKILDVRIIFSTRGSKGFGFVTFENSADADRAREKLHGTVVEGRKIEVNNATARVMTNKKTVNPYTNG

B1: CCAAUCC (DNA:RNA)
RNA: GGGAGACCGGAAUUCAGAUUGUCCCCAAUCCUUAAAUCCCGUCGUAGCCACCA
DNA 1: CAATCTGAATTCCGGTCTCCC
DNA 2: TGGTGGCTACGACGGGATT
B2: CAAAACC (DNA:RNA)
RNA: B1 RNA with C26A, U29A
DNA 1: CAATCTGAATTCCGGTCTCCC
DNA 2: TGGTGGCTACGACGGGATT
B3: GUAUUCG (DNA:RNA)
RNA: B1 RNA with C25G, C26U, A28U, C31G
DNA 1: CAATCTGAATTCCGGTCTCCC
DNA 2: TGGTGGCTACGACGGGATT
B4: UAUCACG (DNA:RNA)
RNA: B1 RNA with C25U, C26A, A27U, A28C, U29A, C31G
DNA 1: CAATCTGAATTCCGGTCTCCC
DNA 2: TGGTGGCTACGACGGGATT
B5: GUUGUGC (DNA:RNA)
RNA: B1 RNA with C25G, C26U, A27U, A28G, C30G
DNA 1: CAATCTGAATTCCGGTCTCCC
DNA 2: TGGTGGCTACGACGGGATT
B6: UGUACUG (DNA:RNA)
RNA: B1 RNA with C25U, C26G, A27U, U29C, C30U, C31G
DNA 1: CAATCTGAATTCCGGTCTCCC
DNA 2: TGGTGGCTACGACGGGATT
B7: ACGUUUA (DNA:RNA)
RNA: B1 RNA with C25A, A27G, A28U, C30U, C31A
DNA 1: CAATCTGAATTCCGGTCTCCC
DNA 2: TGGTGGCTACGACGGGATT
B8: UUAUAGC (DNA:RNA)
RNA: B1 RNA with C25U, C26U, A28U, U29A, C30G
DNA 1: CAATCTGAATTCCGGTCTCCC
DNA 2: TGGTGGCTACGACGGGATT
B9: GUAAACA (DNA:RNA)
RNA: B1 RNA with C25G, C26U, U29A, C31A
DNA 1: CAATCTGAATTCCGGTCTCCC
DNA 2: TGGTGGCTACGACGGGATT
B10: AGCUAUC (DNA:RNA)
RNA: B1 RNA with C25A, C26G, A27C, A28U, U29A, C30U
DNA 1: CAATCTGAATTCCGGTCTCCC
DNA 2: TGGTGGCTACGACGGGATT
B11: GCAAGCA (DNA:RNA)
RNA: B1 RNA with C25G, U29G, C31A
DNA 1: CAATCTGAATTCCGGTCTCCC
DNA 2: TGGTGGCTACGACGGGATT
B12: GAAGCGA (DNA:RNA)
RNA: B1 RNA with C25G, C26A, A28G, U29C, C30G, C31A
DNA 1: CAATCTGAATTCCGGTCTCCC
DNA 2: TGGTGGCTACGACGGGATT
B13: UGAGGUU (DNA:RNA)
RNA: B1 RNA with C25U, C26G, A28G, U29G, C30U, C31U
DNA 1: CAATCTGAATTCCGGTCTCCC
DNA 2: TGGTGGCTACGACGGGATT
B14: CAGUUAG (DNA:RNA)
RNA: B1 RNA with C26A, A27G, A28U, C30A, C31G
DNA 1: CAATCTGAATTCCGGTCTCCC
DNA 2: TGGTGGCTACGACGGGATT
B15: UGGAGUC (DNA:RNA)
RNA: B1 RNA with C25U, C26G, A27G, U29G, C30U
DNA 1: CAATCTGAATTCCGGTCTCCC
DNA 2: TGGTGGCTACGACGGGATT
B16: CAUAAAU (DNA:RNA)
RNA: B1 RNA with C26A, A27U, U29A, C30A, C31U
DNA 1: CAATCTGAATTCCGGTCTCCC
DNA 2: TGGTGGCTACGACGGGATT
B17: AGUUGCC (DNA:RNA)
RNA: B1 RNA with C25A, C26G, A27U, A28U, U29G
DNA 1: CAATCTGAATTCCGGTCTCCC
DNA 2: TGGTGGCTACGACGGGATT
B18: UUUCUAU (DNA:RNA)
RNA: B1 RNA with C25U, C26U, A27U, A28C, C30A, C31U
DNA 1: CAATCTGAATTCCGGTCTCCC
DNA 2: TGGTGGCTACGACGGGATT
B19: CAGCCGC (DNA:RNA)
RNA: B1 RNA with C26A, A27G, A28C, U29C, C30G
DNA 1: CAATCTGAATTCCGGTCTCCC
DNA 2: TGGTGGCTACGACGGGATT
B20: CGGGCCU (DNA:RNA)
RNA: B1 RNA with C26G, A27G, A28G, U29C, C31U
DNA 1: CAATCTGAATTCCGGTCTCCC
DNA 2: TGGTGGCTACGACGGGATT
B21: AGUCAAU (DNA:RNA)
RNA: GGGAGACCGGAAUUCAGAUUGUCCAGUCAAUUUAAAUCCCGUCGUAGCCACCA
DNA 1: CAATCTGAATTCCGGTCTCCC
DNA 2: TGGTGGCTACGACGGGATT
B22: CUGUUAA (DNA:RNA)
RNA: B1 RNA with C26U, A27G, A28U, C30A, C31A
DNA 1: CAATCTGAATTCCGGTCTCCC
DNA 2: TGGTGGCTACGACGGGATT
B23: CCAUCUC (DNA:RNA)
RNA: B1 RNA with A28U, U29C, C30U
DNA 1: CAATCTGAATTCCGGTCTCCC
DNA 2: TGGTGGCTACGACGGGATT
B24: CAAGAAC (DNA:RNA)
RNA: B1 RNA with C26A, A28G, U29A, C30A
DNA 1: CAATCTGAATTCCGGTCTCCC
DNA 2: TGGTGGCTACGACGGGATT
B25: CGGGGCC (DNA:RNA)
RNA: B1 RNA with C26G, A27G, A28G, U29G
DNA 1: CAATCTGAATTCCGGTCTCCC
DNA 2: TGGTGGCTACGACGGGATT
B26: GUAAGUU (DNA:RNA)
RNA: B1 RNA with C25G, C26U, U29G, C30U, C31U
DNA 1: CAATCTGAATTCCGGTCTCCC
DNA 2: TGGTGGCTACGACGGGATT
B27: UUCUCGG (DNA:RNA)
RNA: GGGAGACCGGAAUUCAGAUUGUCCUUCUCGGUUAAAUCCCGUCGUAGCCACCA
DNA 1: CAATCTGAATTCCGGTCTCCC
DNA 2: TGGTGGCTACGACGGGATT
B28: AACAGAU (DNA:RNA)
RNA: B21 RNA with G26A, U27C, C28A, A29G
DNA 1: CAATCTGAATTCCGGTCTCCC
DNA 2: TGGTGGCTACGACGGGATT
B29: ACAUCCU (DNA:RNA)
RNA: B1 RNA with C25A, A28U, U29C, C31U
DNA 1: CAATCTGAATTCCGGTCTCCC
DNA 2: TGGTGGCTACGACGGGATT
B30: CGUUUUC (DNA:RNA)
RNA: B1 RNA with C26G, A27U, A28U, C30U
DNA 1: CAATCTGAATTCCGGTCTCCC
DNA 2: TGGTGGCTACGACGGGATT
B31: AUUUAGA (DNA:RNA)
RNA: B21 RNA with G26U, C28U, A30G, U31A
DNA 1: CAATCTGAATTCCGGTCTCCC
DNA 2: TGGTGGCTACGACGGGATT

The target of this assay is T1, RBFOX1 RRM RbFoxmut (Fox-RRM*). The assay is described as follows: EMSA; HiTS-Eq, 1 nM pool, 10 min; buffer printed only for the single-RNA assays: 10 mM Tris pH 7.5, 150 mM NaCl, 3.4 mM EDTA, 0.001% NP-40, 30 C. To be noted: tags: His6 N-terminal (pET28a); label: 5' 32P. The procedure, abridged:
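Purified wild-type or mutant RbFox RRM at increasing concentrations was equilibrated with 1 nM of 5′-radiolabelled RNA carrying 7 randomized nucleotides for 10 min in 50 µL. Unbound RNA was separated by 8% native PAGE and sequenced. Relative association constants came from read-count changes of each RNA species compared with the control reaction, normalised to the cognate motif.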
B1: the binding signal was 0.0425 KA relative to UGCAUGU.
As for B2, the binding signal is 0.0793 KA relative to UGCAUGU.
For B3, the binding signal was 0.118 KA relative to UGCAUGU.
In the case of B4 it was 0.0968 KA relative to UGCAUGU; in that of B5, 0.173 KA relative to UGCAUGU; in that of B6, 0.143 KA relative to UGCAUGU.
Turning to B7, the binding signal is 0.139 KA relative to UGCAUGU.
The value for B8 was 0.124 KA relative to UGCAUGU; that for B9 was 0.129 KA relative to UGCAUGU; that for B10 was 0.118 KA relative to UGCAUGU.
In the case of B11 it was 0.0929 KA relative to UGCAUGU; in that of B12, 0.0769 KA relative to UGCAUGU.
In the case of B13 it was 0.0836 KA relative to UGCAUGU; in that of B14, 0.132 KA relative to UGCAUGU; in that of B15, 0.18 KA relative to UGCAUGU.
Consider B16, for which the binding signal is 0.0856 KA relative to UGCAUGU.
The value for B17 was 0.205 KA relative to UGCAUGU.
In the case of B18 it was 0.0858 KA relative to UGCAUGU; in that of B19, 0.0819 KA relative to UGCAUGU.
The value for B20 was 0.0905 KA relative to UGCAUGU; that for B21 was 0.0609 KA relative to UGCAUGU.
In the case of B22, the binding signal is 0.105 KA relative to UGCAUGU.
Turning to B23, the binding signal was 0.0807 KA relative to UGCAUGU.
In the case of B24 it was 0.106 KA relative to UGCAUGU; in that of B25, 0.231 KA relative to UGCAUGU; in that of B26, 0.11 KA relative to UGCAUGU.
In the case of B27 it was 0.0748 KA relative to UGCAUGU.
The value for B28 was 0.0694 KA relative to UGCAUGU; that for B29 was 0.0761 KA relative to UGCAUGU.
As for B30, the binding signal is 0.0458 KA relative to UGCAUGU.
The value for B31 was 0.12 KA relative to UGCAUGU.
